The results in this text go back to publication PMC3898958.

Sequences of proteins named here, by UniProt entry; tags and fusion partners are left off. A change or cut given only in a name is not applied to a line headed by its entry. A line that says so, or that is headed by a name, gives the form on record, which may keep a tag or linker.
UniProt P40479: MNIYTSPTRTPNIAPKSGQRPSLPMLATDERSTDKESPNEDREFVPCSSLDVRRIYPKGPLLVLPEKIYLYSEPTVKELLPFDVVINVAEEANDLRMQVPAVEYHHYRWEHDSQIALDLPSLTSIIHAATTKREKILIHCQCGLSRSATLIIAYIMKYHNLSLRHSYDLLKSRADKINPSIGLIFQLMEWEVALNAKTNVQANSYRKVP
Recombinant Sdp1^IAYATA-GST (plasmid pETGEXCT) (P40479, form named): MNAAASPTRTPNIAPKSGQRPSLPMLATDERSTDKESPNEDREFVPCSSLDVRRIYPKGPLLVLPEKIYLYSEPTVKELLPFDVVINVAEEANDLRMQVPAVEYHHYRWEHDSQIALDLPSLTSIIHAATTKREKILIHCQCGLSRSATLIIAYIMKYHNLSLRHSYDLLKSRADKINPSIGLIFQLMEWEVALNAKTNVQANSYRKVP

Residue numbers refer to the chain shown, from its start. Results are given in words; binding and its absence hold for the method and conditions named. In cells and extracts the contact can be indirect. Some entries that bind do so weakly or less than the wild type. Tags and fused reporters may be left off the sequences shown.

The target of assay [1] is T1, GST-Slt2 (plasmid pEG(KG)-SLT2) (S. cerevisiae) (UniProt Q00772).
T1 sequence: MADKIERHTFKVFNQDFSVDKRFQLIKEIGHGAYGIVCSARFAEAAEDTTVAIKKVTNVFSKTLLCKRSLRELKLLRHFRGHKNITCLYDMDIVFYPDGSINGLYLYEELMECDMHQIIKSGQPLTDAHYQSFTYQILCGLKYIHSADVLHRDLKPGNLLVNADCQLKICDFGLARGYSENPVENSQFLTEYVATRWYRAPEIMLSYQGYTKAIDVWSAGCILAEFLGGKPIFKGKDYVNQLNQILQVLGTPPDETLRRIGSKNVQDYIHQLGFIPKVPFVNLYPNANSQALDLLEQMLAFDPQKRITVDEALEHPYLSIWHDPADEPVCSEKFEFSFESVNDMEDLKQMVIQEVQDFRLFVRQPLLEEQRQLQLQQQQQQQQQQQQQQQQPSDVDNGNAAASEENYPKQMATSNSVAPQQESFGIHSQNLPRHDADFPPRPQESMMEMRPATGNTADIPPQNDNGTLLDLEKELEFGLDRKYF
The assay can be described thus: pull-down; in vivo binding assay: extracts of S. cerevisiae YPH499 co-expressing the GST fusion and Sdp1-Myc, lysis buffer lacking SDS and NP40, glutathione-Sepharose beads for two hours, blots with anti-Myc and anti-GST.

Assay [2] addresses T2, GST-Mlp1 (plasmid pEG(KG)-Mlp1) (S. cerevisiae) (UniProt P36005).
T2 sequence: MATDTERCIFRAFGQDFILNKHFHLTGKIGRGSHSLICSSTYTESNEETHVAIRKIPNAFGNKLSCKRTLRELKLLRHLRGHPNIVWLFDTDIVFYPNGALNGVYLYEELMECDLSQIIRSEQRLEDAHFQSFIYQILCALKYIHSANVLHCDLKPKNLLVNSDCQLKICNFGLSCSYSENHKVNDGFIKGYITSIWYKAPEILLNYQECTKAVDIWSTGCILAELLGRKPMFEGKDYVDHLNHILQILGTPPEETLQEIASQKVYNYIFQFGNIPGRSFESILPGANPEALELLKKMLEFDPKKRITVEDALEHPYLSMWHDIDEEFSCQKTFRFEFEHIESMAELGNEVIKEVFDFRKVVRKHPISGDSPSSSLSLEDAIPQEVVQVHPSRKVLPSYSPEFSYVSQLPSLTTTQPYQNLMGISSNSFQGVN
The assay is described as above.

The target of assay [3] is Recombinant Sdp1-GST (plasmid pETGEXCT) (S. cerevisiae) (UniProt P40479). The assay can be described thus: pull-down; in vitro binding assay: E. coli extracts with GST-fused Sdp1 mixed with E. coli extracts with the His-tagged protein, glutathione-Sepharose, blots with anti-polyHis and anti-GST.
Assay [4] addresses Recombinant Sdp1^IAYATA-GST (plasmid pETGEXCT) (S. cerevisiae) (UniProt P40479). The description is as above.
Assay [5] deals with T3, Pmp1^C158S-GST (strain DP410) (S. pombe) (UniProt O13453).
T3 sequence: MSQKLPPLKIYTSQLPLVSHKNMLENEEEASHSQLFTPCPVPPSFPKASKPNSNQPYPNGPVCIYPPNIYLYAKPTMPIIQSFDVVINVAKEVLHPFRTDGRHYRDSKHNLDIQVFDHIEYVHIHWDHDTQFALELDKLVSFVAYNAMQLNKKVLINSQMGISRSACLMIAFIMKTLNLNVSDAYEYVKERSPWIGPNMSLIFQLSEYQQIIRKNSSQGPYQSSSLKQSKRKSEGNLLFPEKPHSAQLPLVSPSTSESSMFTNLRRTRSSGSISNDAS
The assay can be described thus: pull-down; extracts of S. pombe strains with genomic Pmp1-GST fusions and Pmk1-HA6H, grown in YES to early-log phase; Pmp1-GST recovered on glutathione-agarose beads, extensive washes, blots with anti-HA and anti-GST.

Assay [6] addresses T4, Pmp1^C158S-IAYATA-GST (strain DP430) (S. pombe) (UniProt O13453).
T4 sequence: T3 sequence with I10A, Y11A, T12A
Described as above.

Regarding “Sdp1^IAYATA-Myc (plasmid YCplac22Sdp1^IAYATAm) (from UniProt P40479 1-209) (enzyme)”, the binding entry in assay [1] and in assay [2] was “no binding” throughout.

Regarding “Sdp1-Myc (plasmid YCplac22Sdp1m) (from UniProt P40479 1-209) (enzyme)”, the binding result in assay [1] and in assay [2] was “binds” each time.

B1: Recombinant Mlp1-His (plasmid pET15B-Mlp1-His) (protein, UniProt P36005 1-433)
chain: T2 sequence
With B1, the binding result in assay [3] is on record as “binds”; in assay [4] it was “no binding”.

B2: Pmk1-HA6H (enzyme, UniProt Q92398 1-422)
chain: MDRRHRVYRVFNQEMYVEPNFKVVKELGQGAYGIVCAARNVASKDQEAVAIKKITNVFSKSILTKRALREIKLLIHFRNHRNITCIYDLDIINPYNFNEVYIYEELMEADLNAIIKSGQPLTDAHFQSFIYQILCGLKYIHSANVIHRDLKPGNLLVNADCELKICDFGLARGCSENPEENPGFMTEYVATRWYRAPEIMLSFSSYHKGIDVWSVGCILAELLGGTPLFKGKDFVHQLNLILHQLGTPDEETLSHISSSRAQEYVRSLPKQRPIPFETNFPKANPLALDLLAKLLAFDPNRRISVDDALEHPYLAVWHDPSDEPVCDSVFDFSFEYIEDANELRRVILDEVLNFRQKVRRRSHPTNPTVNIPQPAQTVPSNDNGSFNVSSSSSSQTSNKKRHDHSYNETAAIDHKSDDNRHN
Turning to B2, the values for the binding result in assay [5] and in assay [6] were “binds” and “no binding”, respectively.

B3: Recombinant Slt2-His (plasmid pET15B-Slt2-His) (enzyme, UniProt Q00772 1-484)
chain: T1 sequence
Take B3: the results for the binding entry in assay [3] and in assay [4] were “binds” and “no binding”, respectively.
